From PubChem BioAssay AID488969 (Vanderbilt High Throughput Screening Facility, 2010)
Over roughly 110,000 compounds, “z-score” has its median near -0.1; the highest 2% begin near 2. The list shows a part of the results. Activity calls are given as the source filed them.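 Rule for the calls: active = z-score in the third read window above 3 or below -3; inactive = the rest.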

Each compound was assayed against Metabotropic glutamate receptor 8 (Rattus norvegicus) (UniProt P70579) (assay: rat mGluR8 modulators via GIRK flux, primary screen, cell-based, thallium flux, HTS (AID 488969)). Conditions: HEK293 rat mGluR8, GIRK (G protein-gated inwardly rectifying potassium channel) thallium flux, FluoZin2; at 10 µM; stronger effect = higher value; submaximal glutamate (EC20) added with thallium.
Chain of UniProt P70579 (P70579 whole entry, looked up): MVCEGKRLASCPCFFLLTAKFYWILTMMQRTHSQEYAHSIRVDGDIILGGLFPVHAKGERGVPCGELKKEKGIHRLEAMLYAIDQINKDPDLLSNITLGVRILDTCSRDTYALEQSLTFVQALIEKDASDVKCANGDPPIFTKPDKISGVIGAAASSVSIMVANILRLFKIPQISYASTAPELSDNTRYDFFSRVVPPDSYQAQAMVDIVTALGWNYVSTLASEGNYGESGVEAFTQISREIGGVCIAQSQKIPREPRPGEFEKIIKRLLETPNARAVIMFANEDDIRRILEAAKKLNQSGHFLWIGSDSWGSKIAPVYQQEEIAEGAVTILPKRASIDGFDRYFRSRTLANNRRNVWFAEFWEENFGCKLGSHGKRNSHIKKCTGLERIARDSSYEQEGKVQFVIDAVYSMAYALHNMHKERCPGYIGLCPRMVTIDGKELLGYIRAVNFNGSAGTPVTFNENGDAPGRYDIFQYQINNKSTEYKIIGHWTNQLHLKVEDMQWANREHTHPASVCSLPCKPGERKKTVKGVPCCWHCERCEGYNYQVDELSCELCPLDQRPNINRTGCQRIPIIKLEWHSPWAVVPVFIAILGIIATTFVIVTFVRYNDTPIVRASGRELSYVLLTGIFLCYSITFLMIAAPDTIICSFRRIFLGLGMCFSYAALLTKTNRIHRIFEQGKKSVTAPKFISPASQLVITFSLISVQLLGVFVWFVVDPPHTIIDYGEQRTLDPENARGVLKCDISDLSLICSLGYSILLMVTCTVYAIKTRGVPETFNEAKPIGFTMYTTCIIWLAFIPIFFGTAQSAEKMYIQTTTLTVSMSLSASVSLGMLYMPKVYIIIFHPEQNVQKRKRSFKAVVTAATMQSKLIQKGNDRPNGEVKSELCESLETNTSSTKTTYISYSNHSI
O=S(=O)(NCCSc1ccccc1)c1cccs1 showed a z-score of 0.639.
In the case of CNC(=S)N/N=C1\C(=O)c2cccc3cccc1c23, the z-score is reported as active: 14.1.
CCOC(=O)c1ccc(NC(=S)NC2CC(C)(C)NC(C)(C)C2)cc1 showed a z-score of 0.803.
For O=C(Nn1cnnc1)c1csc2ccccc12, the z-score was -0.0912.
Cc1ccc(N2CCN(S(=O)(=O)N(C)C)CC2)cc1Cl was tested, and the z-score was 0.249.
In the case of Cc1cc(C)n2nc(C(=O)Nc3ccc(N4CCOCC4)cc3)nc2n1, the z-score is reported as -0.0178.
In the case of CCSc1ccccc1C(=O)NCc1ccc(OC)cc1, the z-score is reported as -0.303.
N#CC1=C(N)N(c2ccccc2)C(c2ccco2)C1(C#N)C#N (stereo unspecified) showed a z-score of -0.548.
In the case of COc1ccc(C2=Nn3c(nnc3-c3ccco3)SC2)cc1OC, the z-score is reported as -0.259.
With CCOC(=O)N1CCN(C(=O)C(=O)NNC(=O)COc2ccc(Cl)c(C)c2)CC1 the z-score was 0.261.
COC(=O)c1c(NC(=O)CN2C(=O)C(=O)N(CC(C)C)C2=O)sc2c1CCCCC2 gave a z-score of -0.035.
For Cc1ccsc1/C=N/NC(=O)c1cccc(S(=O)(=O)Nc2ccccc2Cl)c1, the z-score was -0.0762.
In the case of Cc1cccc(OCC(=O)N2CCC(N3CCOCC3)CC2)c1, the z-score is reported as -0.0492.
Cc1ccc(-c2csc(/C(C#N)=C/Nc3ccccc3SC(F)(F)F)n2)c(C)c1 showed a z-score of 0.02.
Cc1ccc2oc(-c3ccco3)nc2c1 gave a z-score of -0.256.
With Cc1cccc(S(=O)(=O)Nc2cccc(-c3cn4ccsc4n3)c2)c1 the z-score was -0.385.
Work on CCc1ccc(N2CC(C(=O)Nc3ccccc3F)CC2=O)cc1 (stereo unspecified) yielded a z-score of 0.00826.
Compound CCOC(=O)c1cc(CC)sc1/N=C/c1c(O)ccc2ccccc12 has a z-score of 0.0622.
Work on O=C(CNC(=O)c1ccco1)NCC(=O)OCc1cccc(Cl)c1 yielded a z-score of 0.463.
In the case of CCOc1cc(CNCc2cccs2)cc(Br)c1OCC, the z-score is reported as -0.539.
C/C(=N/NC(=O)c1ccc(Br)o1)c1ccncc1 gave a z-score of -0.0302.
Compound CCOCC(=O)Nc1nc2c(s1)C(=O)CC(C)(C)C2 has a z-score of -0.264.
COCCNS(=O)(=O)c1ccccc1 was tested, and the z-score was 0.0399.
With Clc1ccc2c(c1)C(N1CCNCC1)Cc1ccccc1S2 (stereo unspecified) the z-score was active: 3.92.
Work on Cc1cccc(NC(=O)C2CCCN2C(=O)OCC(C)C)c1 (stereo unspecified) yielded a z-score of 0.00631.
Cc1cc(OCCOCCN(C)CCO)cc(C)c1Cl showed a z-score of 0.392.
O=S(=O)(c1ccc(F)c2ccccc12)N1CCCCC1 showed a z-score of -1.43.
For C=CCn1c(SCc2nc3cc(C(F)(F)F)ccc3c(=O)[nH]2)nc2sc(CC)cc2c1=O, the z-score was 0.0244.
Compound Cc1ccc(-c2nnc(SCC(=O)O)n2N)cc1 has a z-score of 0.74.
With CC(C)Sc1nc2c(c(=O)n(C)c(=O)n2C)n1Cc1ccc(Cl)cc1 the z-score was -0.506.
Compound O=C(NC1CCCCC1)NC1CCN(S(=O)(=O)c2ccc3c(c2)OCCO3)CC1 has a z-score of 0.742.
In the case of O=C(Nc1c(F)cc(F)cc1Br)c1cc(-c2ccc(O)cc2)on1, the z-score is reported as -0.0167.
With COC(=O)c1ccc(NC(=O)COc2ccc(S(=O)(=O)NC(C)C)cc2)cc1 the z-score was 0.613.
Compound CC1CCc2sc(C(=O)OCC(=O)NCc3ccccc3)cc2C1 (stereo unspecified) has a z-score of -0.173.
CCOCCCNC(=O)CN(Cc1ccc(Cl)cc1)S(C)(=O)=O was tested, and the z-score was 0.482.
c1ccc(CSc2ncnc3c2cnn3Cc2ccccc2)cc1 was tested, and the z-score was -0.473.
O=C(Nc1ccccc1)N1CCc2ccccc2C1 was tested, and the z-score was -0.169.
In the case of O=c1c2ccccc2nnn1CSc1nnc2ccccn12, the z-score is reported as 0.0196.
Work on O=C(c1cc([N+](=O)[O-])ccc1Cl)N1CCN(c2ccccc2)CC1 yielded a z-score of -0.238.
CCC(=O)N(Cc1cc2c(C)ccc(C)c2[nH]c1=O)C1CCCCC1 gave a z-score of -0.433.
In the case of COc1cccc(OCC(O)CN2CCC(Cc3ccccc3)CC2)c1 (stereo unspecified), the z-score is reported as -0.0721.
With CN(Cc1cnn(C)c1)C(=O)c1cc2ccccc2oc1=O the z-score was -0.11.
For COc1ccc(-c2nc3nc(C)cc(C)n3n2)cc1, the z-score was 0.281.
CN1CC(c2ccc(Cl)c(Cl)c2)[C@@]2(COc3ccccc3C2=O)[C@@]12C(=O)Nc1ccccc12 (stereo partly specified) was tested, and the z-score was 0.103.
OCCN1CCN(c2nc(-c3ccccc3)c3cc(Cl)ccc3n2)CC1 gave a z-score of -0.163.
CSc1nnc(C2CCCN2)n1C (stereo unspecified) showed a z-score of 0.383.
For COc1cccc(C2NC(c3cccc(OC)c3O)C(C)C(=O)C2C)c1O (stereo unspecified), the z-score was -0.951.
COC(=O)c1cc(NS(=O)(=O)c2ccc(NC(C)=O)cc2)cc(C(=O)OC)c1 was tested, and the z-score was 0.683.
Work on Cc1nc2ccccc2n1CC(=O)OCC(=O)Nc1ccc2c(c1)OCCO2 yielded a z-score of 0.0802.
In the case of Cc1ccc(-n2c(O)c(C=NCc3ccccn3)c3ccccc3c2=O)cc1, the z-score is reported as -0.774.
COc1ccc(NC(=O)C(NC(=O)CNC(C)=O)c2ccc(C)cc2)cc1 (stereo unspecified) showed a z-score of 0.128.
For C=C(Cl)COc1ccc2c(CCCC)cc(=O)oc2c1, the z-score was -0.0779.
Compound O=C(NC(=S)N1CCOCC1)c1ccc([N+](=O)[O-])cc1 has a z-score of 0.875.
Compound CC(OC(=O)c1ccc(NS(=O)(=O)c2cccs2)cc1)C(=O)N(C)C1CCCCC1 (stereo unspecified) has a z-score of 0.149.
CC1=C(C#N)C(=O)NC(C)(C)C1 was tested, and the z-score was 0.0694.
CCCCNCCCOc1cc(Cl)ccc1Cl was tested, and the z-score was 1.58.
With CS(=O)(=O)Nc1ccc(C(=O)Nc2ccccc2C(=O)N2CCCC2)cc1 the z-score was -0.552.
Compound COc1cc(/C=N/NC(N)=S)ccc1OCC(=O)N1CCOCC1 has a z-score of -0.292.
O=C(CCN1CCCC1)Nc1ccccc1 showed a z-score of -0.0263.
In the case of Cc1cccc(NC(=O)C2(C)CC3c4ccccc4C2c2ccccc23)c1C (stereo unspecified), the z-score is reported as -0.106.
Work on Cc1ccc(-c2n[nH]c(=S)n2/N=C/c2ccc(C)o2)cc1 yielded a z-score of -1.27.
For COc1ccc(C(=O)Nc2cc(C)nc3ccccc23)cc1OC, the z-score was 0.0436.
In the case of O=CN1CCN(C(=O)Cc2ccc([N+](=O)[O-])cc2)CC1, the z-score is reported as 0.0722.
Compound CCN1CCN(Cc2cc(=O)oc3cc4c(cc23)CCC4)CC1 has a z-score of 1.86.
Work on Cc1cccc(Nc2nc(N)c([N+](=O)[O-])c(NCc3ccco3)n2)c1 yielded a z-score of 2.38.
Cc1ccc(OC(C)C(=O)Nc2ccc(S(=O)(=O)Nc3cc(C)on3)cc2)cc1 (stereo unspecified) showed a z-score of -0.0628.
O=C(c1ccc(S(=O)(=O)N2CCC(c3nc4ccccc4s3)CC2)cc1)N1CCCCC1 was tested, and the z-score was -0.509.
For O=c1c2ccccc2c2c(O)nc(-c3ccccc3)n2n1Cc1ccccc1, the z-score was -0.192.
Compound Cc1ccc(Nc2nnns2)cc1C has a z-score of 0.249.
In the case of CC(Sc1ccc2ccccc2n1)C(=O)O (stereo unspecified), the z-score is reported as -0.043.
With CCCc1cc(N2CCN(c3ccccn3)CC2)n2nc(C)c(-c3ccccc3)c2n1 the z-score was 0.0996.
Work on CCCC(=O)Nc1ccc(Cl)c(NC(=O)c2cccnc2Cl)c1 yielded a z-score of 0.0107.
CC1(C)Cc2cccc(OCC(=O)Nc3cc(C(F)(F)F)ccc3N3CCOCC3)c2O1 gave a z-score of -0.14.
C=CCN(C(=O)CNS(=O)(=O)c1ccccc1)C(C(=O)NCCOC)c1ccncc1 (stereo unspecified) was tested, and the z-score was -0.601.
C=CCn1c(O)c(C2=c3ccccc3=NC2=O)s/c1=N/c1nccs1 was tested, and the z-score was -0.29.
In the case of Nc1nc(SCC(=O)c2ccc(Oc3ccccc3)cc2)n[nH]1, the z-score is reported as 0.234.
CN(Cc1ccccc1)C(=O)C1CCN(S(=O)(=O)c2cc([N+](=O)[O-])ccc2Cl)CC1 showed a z-score of -0.357.
Work on O=C(c1ccc(-c2ccccc2)cc1)N1CCN(Cc2ccccn2)CC1 yielded a z-score of -0.515.
CN(C(=O)CSc1nnc(Nc2ccccc2)s1)c1c(N)n(Cc2ccccc2)c(=O)[nH]c1=O gave a z-score of 0.474.
For Cc1ccc(C)c(NC(=O)CCC(=O)NNC(=O)c2cccc([N+](=O)[O-])c2)c1, the z-score was 0.265.
O=C(CN1CCN(S(=O)(=O)c2ccc(Br)cc2)CC1)N/N=C/c1cccs1 gave a z-score of -0.589.
With COc1ccc(C2C(C(=O)Nc3ccccc3OC)=C(C)Nc3ncnn32)cc1 (stereo unspecified) the z-score was -0.242.
Work on CCCCC(=O)Nc1ccc(NC(=O)c2ccccc2[N+](=O)[O-])cc1OC yielded a z-score of -1.55.
In the case of CN(C)S(=O)(=O)c1ccc(Cl)c(NC(=O)COC(=O)CCSc2ccccc2)c1, the z-score is reported as -0.163.
In the case of O=C(CN1C(=O)c2ccccc2C1=O)N1CCN(c2nnc(-c3ccccc3)c3ccccc23)CC1, the z-score is reported as 0.179.
COc1ccc(Oc2cc(F)nc(N)n2)cc1 was tested, and the z-score was -0.157.
Work on Cn1nnc2cc(C(=O)NC3CCCCC3)ccc21 yielded a z-score of 0.38.
In the case of Cc1ccc(Cn2nc(C)c(NC(=O)c3cc(-c4ccc5c(c4)OCO5)on3)c2C)cc1, the z-score is reported as -1.01.
In the case of O=C(CN(c1cccc(C(F)(F)F)c1)S(=O)(=O)c1ccc(Cl)c([N+](=O)[O-])c1)NCc1ccccc1, the z-score is reported as 1.03.
With Nc1c(C(=O)N2CCCCC2)sc(=S)n1-c1ccccc1 the z-score was -0.163.
With COc1ccc(C2/C(=C(\O)c3ccc4c(c3)OCCO4)C(=O)C(=O)N2Cc2ccco2)c(OC)c1 (stereo unspecified) the z-score was -1.9.
O=C(Cn1ncc2c(=O)oc3ccccc3c21)N1CCN(C(=O)c2ccco2)CC1 was tested, and the z-score was -0.199.
Compound Cc1cccc2cc(C#N)c(SCC(=O)NCC3CCCO3)nc12 (stereo unspecified) has a z-score of 0.355.
For CCOC(=O)C1CCN(C(=O)Nc2ccc3nc(-c4ccco4)c(-c4ccco4)nc3c2)CC1, the z-score was -0.816.
O=C(NC1CCCCC1)c1ccc(S(=O)(=O)N2CCCC2)cc1 gave a z-score of -0.138.
Work on Cc1nc(SC2CC(=O)N(c3ccc([N+](=O)[O-])cc3)C2=O)nc2c1CCCC2 (stereo unspecified) yielded a z-score of -0.101.
Cc1ccc(O)c(/C=N/NC(=O)C2=NNC(c3ccccc3)(c3ccccc3)C2)c1 showed a z-score of 0.157.
Cc1cc(C(=O)CSc2nnc(-c3ccco3)o2)c(C)n1-c1ccc2c(c1)OCCO2 showed a z-score of 0.71.
Compound Cc1ccccc1OCCn1c(=O)oc2ccccc21 has a z-score of -0.479.
In the case of CCOC(=O)c1cnc2cc(C)nn2c1C, the z-score is reported as 0.351.
With COc1ccc(/C=N/Nc2nc(NCc3ccco3)nc(Nc3ccc(OC)cc3)n2)cc1 the z-score was -0.217.
For COc1cccc(CNc2nc3nc(C)cc(=O)n3[nH]2)c1, the z-score was -0.0013.
C=CCNc1nc(Cl)nc(Nc2ccc(OCC)cc2)n1 was tested, and the z-score was 0.127.
Work on COc1ccccc1NC(=O)c1ccc(Cl)c(S(=O)(=O)N2CCOCC2)c1 yielded a z-score of -0.465.
Cc1cccc(CSc2nnc(N)n2-c2ccccc2)c1 gave a z-score of -0.0797.
COc1ccc(NC(=O)c2c(NC(=O)CNCc3ccco3)sc3c2CCC3)cc1 gave a z-score of -0.387.
With CCOC(=O)c1[nH]c(C)c(C(=O)OCC)c1C the z-score was -0.0907.
In the case of CCOC(=O)c1ccccc1NC(=O)N[C@@H](C)C(=O)OC, the z-score is reported as 0.0579.
With CCCCOC(=O)Nc1nnc(SCCOc2ccc(C)cc2)s1 the z-score was -0.177.
In the case of Cn1c(=O)c2c(nc(-n3ccnc3)n2Cc2ccc(Cl)cc2Cl)n(C)c1=O, the z-score is reported as -0.162.
Compound CCSc1c(-c2ccccc2)nc2c(C)cccc2c1C(=O)O has a z-score of -1.09.
